The labels stand for the following.
B1: chr6:109001311:109001429:-|CDS|ENSG00000080546|unk|FALSE|unique (ssRNA)
RNA: GGGAGUUCUACAGUCCGACGAUCUGCUGCUUUGGGCCGUUUGGAUAACAUUACGUUAGUGAUGGUUUUCCACCCACAAUAUUUAGAAAGUUUCUUAAAAACUCAGCACUAUCUACUGCAAAUGGAUGGGCCGUUACCCCUACACAACAGAGGAUUGAGCAUCA
B2: ENSG00000124766:be:win_1101|CDS|ENSG00000124766|bound_else_gene|NA|bound_elsewhere_windowed (ssRNA)
RNA: GGGAGUUCUACAGUCCGACGAUCCUCGCCCGCCCCGUCCAGCGCGCCCUCGCACGCGUCCUCCUCGGCCUCGUCCCACUCCUCCUCUUCCUCCUCCUCGGGCUCCUCGUCCUCCGACGACGAGUUCGAAGACGACCUGCUCGACAACAGAGGAUUGAGCAUCA
B3: ENSG00000148396:stop:overlap|stop_codon|ENSG00000148396|stop_codon|NA|stop_codon (ssRNA)
RNA: GGGAGUUCUACAGUCCGACGAUCCCACCUCCGGGAGCUCAAGGCUAGGGAGGAUUGGCCAGAGGAAGCACCUGGUGCUGAACUAGGCUUGCCCUGCUGUGAACUUGCACUUGGAGCCCUGACGCUGCUGUUCUCCCCGAAGAACAACAGAGGAUUGAGCAUCA
B4: ENSG00000198589:be:win_4101|CDS|ENSG00000198589|bound_else_gene|NA|bound_elsewhere_windowed (ssRNA)
RNA: GGGAGUUCUACAGUCCGACGAUCUAUGGUCAUGGCUUGUGGGGGUAUACUGCCAUUGCUUUCAGCUGCUACAUCGGCUACACAUGAACUGGAAAAUAUUGAACCUACUCAAGGCCUUUCAAUAGAAGCCUCUGUGACAUUUUUCAACAGAGGAUUGAGCAUCA
B5: ENSG00000100439:stop:overlap|stop_codon|ENSG00000100439|stop_codon|NA|stop_codon (ssRNA)
RNA: GGGAGUUCUACAGUCCGACGAUCCUGUCCUAGGACGUUCCAAUCCAUUGGCUGUUCUUCGAGUAGCUGGGCCCUGGGGUGAGUAGCCUGAAUACAAAGGUGACUAAGAUUCUGCCUCAGUCUCUGAAGAGACCAACAAGUUGACAACAGAGGAUUGAGCAUCA
B6: chr1:205084032:205084133:-|CDS|ENSG00000174529|msi1|total|mutant (ssRNA)
RNA: GGGAGUUCUACAGUCCGACGAUCGGAGACCGUCUGUGAGGUGGGCCCUGAUGGAGUGAGAAGGAAAUGUCAGACUCGGCGCUCCGAAUGUCUGACCAACUGGAUCUGUGGGAUGCUCCAUUUCACCAUUCUCAUUGGCAAGGACAACAGAGGAUUGAGCAUCA
B7: chr11:108173179:108173289:-|CDS|ENSG00000149308|unk|FALSE|unique (ssRNA)
RNA: GGGAGUUCUACAGUCCGACGAUCUGGUUCCAAGUCAUCAGAUUCUAGUGAAGUUCACAAGAGUAAAAUAGAAAUUAAUGUGUUAGAACCAGUUAUGUCACAGCUAUCAAAUUGCCAAGAUAAUUCUUGUCUUCAAAGUGAAAUCAACAGAGGAUUGAGCAUCA
B8: chr8:58582127:58582250:+|3pUTR|ENSG00000137575|unk|FALSE|bound_elsewhere (ssRNA)
RNA: GGGAGUUCUACAGUCCGACGAUCUUCAUAUUACUUUAGUUCUAUAGCAUACUUGCAUCUUUAACAUGCUAUCAUAGUACAUUUAGAAUGAUUGCCUUUGAUUUUUUUUUUAAAUUCUGUGUGUGUGUGUGUAAAAUGCCAAUUCAACAGAGGAUUGAGCAUCA
B9: chr17:35009752:35009853:-|3pUTR|ENSG00000092871|msi1|total|mutant (ssRNA)
RNA: GGGAGUUCUACAGUCCGACGAUCAUUCAGCUACUCAGUUCCUCUGUAAAACAGGUCUAUGUAUGUGCAAUUCAGCUAAGAUCCCGCAGUAACUUAAGGGCAGAAGCUGGCUCUCUACUUACAACCUGCUUUCUCUGCUGAAGCCAACAGAGGAUUGAGCAUCA
B10: ENSG00000107863:be:win_3951|CDS|ENSG00000107863|bound_else_gene|NA|bound_elsewhere_windowed (ssRNA)
RNA: GGGAGUUCUACAGUCCGACGAUCGGUCACCCACAUGCCUGACCAGUACAAGAUUGUAGAAACGCUCAUCCAGCACCAUGACUGGUUUUUCACAGAAGAAGGUGCUGAAGAGCCUCUUACAACAGUGCAGGAGGAAAGCACAGUCAACAGAGGAUUGAGCAUCA
B11: chr20:38493008:38493109:+|CDS|ENSG00000170471|unk|total|mutant (ssRNA)
RNA: GGGAGUUCUACAGUCCGACGAUCAUUGGAUGGAGAGACUGUAAAAUAUUGCGUUGAUGUAUAUACAGACUGGAUUAUGGCUUCCGUGUUGCCAAAAGAUUCUAUUCCAUUGCCAGUUAUUAAAGAGCCUAAUCAAUAUGUUCACAACAGAGGAUUGAGCAUCA
B12: ENSG00000070961:be:win_4901|3pUTR|ENSG00000070961|bound_else_gene|NA|bound_elsewhere_windowed (ssRNA)
RNA: GGGAGUUCUACAGUCCGACGAUCCAGUGCAUCAGUCUGUUCUCUUUGACCACAAUUGGAAUACAUUUCAAGAUGGUAACAGCCCCAUGAAGUACCGCUUUAAUUCCUUGCUGGUAAUCUAAUAGAAUCAGAUUAAGAAAAUUACAACAGAGGAUUGAGCAUCA
B13: chr2:160273923:160274028:-|3pUTR|ENSG00000153250|unk|FALSE|unique (ssRNA)
RNA: GGGAGUUCUACAGUCCGACGAUCGGGCUUUUAAAAGGUAGUCAAUAAAAGUUGCUGAAAUUUUGGCUUUUUUAAAUAUGUAGUAGGUGUUUUUAAUGAUUUUUCACAUAAUGUGUAAGGUAGUGAAAUGCAAGAAGGGAAAAACAACAGAGGAUUGAGCAUCA
B14: chrX:100674576:100674677:+|3pUTR|ENSG00000102359|msi1|total|mutant (ssRNA)
RNA: GGGAGUUCUACAGUCCGACGAUCUUGCAAUCCACACCAAAUCAAUCUUUGAAAACAUUCCUCCAUUCGGUUCAUACAUACAGCCGAAACCACUGUGGCUGCCCUUAAUCCAGUGUGCUUACCGGAAAUCAGUCCGCAGCUGACCAACAGAGGAUUGAGCAUCA
B15: chr1:23091194:23091296:-|CDS|ENSG00000169641|unk|total|mutant (ssRNA)
RNA: GGGAGUUCUACAGUCCGACGAUCCUCCAGAAGGACCCAAAGCCGCCUCACUGUGUCAGAGGUGCUUACCCGUCGGAAUCGGGCCGGAGACACCAUCACUGUCGCAGCCUGGAACCACUCAGCAAGCAUGGUGAGUUCCAGCCUCAACAGAGGAUUGAGCAUCA
B16: chr12:122271799:122271900:-|3pUTR|ENSG00000130779|msi1|FALSE|bound_elsewhere (ssRNA)
RNA: GGGAGUUCUACAGUCCGACGAUCGUAUAAAACACCUAAAUAACCAAUCUACAAUCUCCCUUCACAAGUUUUUUUACUGUUUUUAGAUGAAUGUACGAUGAGAAAUUCAACGUUAAUAAUUCUGGAUUUUCUUAUCACAAAAAACAACAGAGGAUUGAGCAUCA
B17: chrX:120258281:120258382:+|3pUTR|ENSG00000177485|msi1|total|mutant (ssRNA)
RNA: GGGAGUUCUACAGUCCGACGAUCUGUACAAUCUUCCCUGUCAUGACUUUAAGUUCUACUUUUCAUUAACCAUGGCCUGAUAUCCGUUCUCCGAGCUUCUUGUGGCAAAAAUAAAAUGAUUUAAUUCUGAUGUUUGAGUGCGUGCAACAGAGGAUUGAGCAUCA
B18: chr7:44210018:44212343:-|three_prime_utr|ENSG00000058404|control|control|control (ssRNA)
RNA: GGGAGUUCUACAGUCCGACGAUCCCCCAAUCCUGGCAGGCGUGGCAGAGGGAGCUCCACAGGACACAGCCAGGCAGAGAAACUAGCACUAGAACAGGGUGGGGGUGGAGGCCUUGAGGGAAGCUGUCCACAAGCAAUUCCCAUCAACAGAGGAUUGAGCAUCA
B19: chr12:68660398:68660499:+|3pUTR|ENSG00000127314|msi1|total|mutant (ssRNA)
RNA: GGGAGUUCUACAGUCCGACGAUCUUGAGGUGGCCAAAUGUAAACUAAAAGCCUUAAUUAAAGUGGUGCAAUUUUGUAUAACUCCGCAUCAGCCGUUCAAUAAAUUUGGAUUGCCAUGCAAGGGCUUGCAUUAUAAUUACUUGCCAACAGAGGAUUGAGCAUCA
B20: chr13:79312715:79312816:-|3pUTR|ENSG00000139746|unk|total|mutant (ssRNA)
RNA: GGGAGUUCUACAGUCCGACGAUCCCUUGUGAUUUAUUAUAAUGCCGCAGCAUACUUAUAAAAGUGGUCUGUGCUGAGUCAGACCGAGAGCCCAGCCCAUCCGAAACACAUCAUAAUUUAAGAAUAUGAUGCAGAAUGCCCUUACAACAGAGGAUUGAGCAUCA
B21: chr7:139306712:139306813:+|3pUTR|ENSG00000157741|msi1|total|mutant (ssRNA)
RNA: GGGAGUUCUACAGUCCGACGAUCAUCUGGGGCUUGCCCUUGGAUUUCACUUGUUAAACACCCUCAAACUUAAAAGAAGAAAACCGAUCUCCAGCUGGUGAAAAUUUUGUGCCCCAAAUAAUAUAUUAAUCCAAGUCUACCAAGCAACAGAGGAUUGAGCAUCA
B22: ENSG00000070961:be:win_401|CDS|ENSG00000070961|bound_else_gene|NA|bound_elsewhere_windowed (ssRNA)
RNA: GGGAGUUCUACAGUCCGACGAUCAUGCACUUUGUGGAGAAGUUUCUGUUGGGGAGGAAGAAGGUGAAGGUGAAACUGGUUGGAUUGAAGGAGCUGCAAUCCUCUUGUCUGUAGUGUGUGUGGUGUUAGUAACAGCUUUCAAUGCAACAGAGGAUUGAGCAUCA

This is one part of the list.

Here are results for 22 molecules from article PMC12136788.

The target in this assay is MSI1 full-length (mouse, UniProt Q61474 1-362). Nature of the assay: nsRBNS (natural sequence RNA bind-n-seq); RBNS binding buffer (assumed for nsRBNS): 25 mM Tris pH 7.5, 150 mM KCl, 3 mM MgCl2, 0.01% Triton X-100, 500 ug/ml BSA, 20 U/ml SUPERase-In, 4 C; UNK is unkempt and MSI1 is Musashi-1; names of the RNAs are library labels; protein concentration not given here; high values mean tight binding.
Sequence of UniProt Q61474 (Q61474 whole entry): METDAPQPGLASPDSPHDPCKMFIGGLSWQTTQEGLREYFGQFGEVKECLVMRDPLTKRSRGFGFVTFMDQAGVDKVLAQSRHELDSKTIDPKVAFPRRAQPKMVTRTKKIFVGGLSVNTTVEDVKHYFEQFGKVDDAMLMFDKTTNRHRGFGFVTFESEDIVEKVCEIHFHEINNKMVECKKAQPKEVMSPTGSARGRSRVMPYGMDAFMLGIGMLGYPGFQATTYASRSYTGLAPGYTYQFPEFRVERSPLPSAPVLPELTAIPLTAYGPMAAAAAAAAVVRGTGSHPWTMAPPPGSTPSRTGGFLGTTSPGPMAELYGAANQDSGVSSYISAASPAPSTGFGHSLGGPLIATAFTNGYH
The molecule B1 displayed a binding signal of 2.55 enrichment R.

Take B2: the binding signal turned out to be 0.794 enrichment R.

Molecule B3 returned a binding signal of 0.737 enrichment R.

On to B4, for which the binding signal was found to be 0.328 enrichment R.

For B5, the binding signal was found to be 0.636 enrichment R.

B6 registered a binding signal of 0.456 enrichment R.

Molecule B7 registered a binding signal of 1.48 enrichment R.

The molecule B8 had a binding signal of 10.5 enrichment R.

With B9, the binding signal was 0.371 enrichment R.

In the case of B10, the binding signal is 0.341 enrichment R.

B11: the binding signal is 0.506 enrichment R.

The molecule B12 showed a binding signal of 0.372 enrichment R.

B13 registered a binding signal of 5.91 enrichment R.

In turn, B14 returned a binding signal of 0.411 enrichment R.

With B15, the binding signal is 0.386 enrichment R.

For B16, the binding signal came out at 1.89 enrichment R.

Molecule B17 registered a binding signal of 0.315 enrichment R.

Regarding B18, the binding signal is 1.05 enrichment R.

B19 had a binding signal of 0.349 enrichment R.

Molecule B20 showed a binding signal of 1.96 enrichment R.

In turn, B21 showed a binding signal of 0.746 enrichment R.

Consider B22, for which the binding signal was 1.61 enrichment R.
